Self-cleavage data for 20 variants are collected here from the RNAGym collection of RNA variant scans (doi:10.7554/elife.90254).

Sequences and labels used below:
B1: OR4K15 (parent)
chain: GUUAACGGUCAUAGGCCAUGGAAACUAGGAGCACCAUUUCGCUGCCAGUGAAGAAAUGAACAAAGAAAAUCUGGGCCAGGCAGGCAUCAAAAGAAAUAGUCUUGCGCUCAACCAGAAAGUCUGUAAUCAUUUUAAGGGUA

Read counts are not given, so values of variants with three or more changes are uncertain.

Variants of B1 are the subject of the series. The series can be described thus: self-cleavage, relative activity (ratio to wild type); higher = more cleavage; in vitro, sequencing; the parent is a self-cleaving ribozyme.
As to GUAAACGGUCAUAGGCCAUGGGAACUAGGAGCACCAUUCCGCUGCCAGUGAAGAAAUGAGCAAAGAAAAUCUGGGCCAGGCAGGCAUCAUAAGAAAUAGUCUUGCGCUCAACCAGAAAGUCUGUAAUCAUUUUAAGGGUA [U3A A22G U39C A60G A90U], the self-cleavage was found to be 0.59. Then GUAAACGGUCAUAGGCCAUGGGAACUAGGAGCACCAUUUCGCUGCCAGUGAAGAAAUGAACAAAGAAAUUCUGGGCCAGGCAGGCAUCAAAAGAAAUAGUCUUGCGCUCAACCAGAAAGUCUGUAAUCAUUCUAAGGGUA [U3A A22G A69U U132C], with 1.31; and GUAAACGGUCAUAGGCCAUGGAAACUAGGAGCACCACUUCGCUGCGAGUGAAGAAAUGAACAAAGAAAAUCUGGGCCAGGCAGGCAUCAAAAGAAAUAGUCUUGCGCCCAACCAGAAAGUCUGUAAUCAUUUUAAGGGUA [U3A U37C C46G U108C], with 0.03.

As to GUCAACGGUCGUAGGCCAUGGAAACUAGGAGCACCAUUUCGCUGCCAGUGAAGAAAUGAGCAAAGAAAAUCUGGGCCAGGCAGGCAUCAAAAGGAAUAGUCUUGCGCUCAACCAGAAAGUCUGUAAUCAUUUUAAGGGUA [U3C A11G A60G A94G], the self-cleavage was 1.02.

On to GUCAACGGUCAUAGGCCAUGGGAACUAGGAGCACCAUUUCGCUGCCAGUGAAGAAAUGAACAAAGAAAAUCUGGGCCAGGCAGGCAUCAAAAGAAAUAGUCUCGCGCUCAUCCAGAAAGUCCGUAAUCAUUUUAAGGGUA [U3C A22G U103C A111U U122C], for which the self-cleavage is 0. Then GUAAACGGUCAUAGGCCAUGGAAACUAGGAGCACCAUUUCGCUGCCAGUGAAGAAAUGAACAAGGAAAAUCUGGGCCAGGCAGGCAUCAAAAGAAAUAGUCUUGCGCCCGACCAGAAAGUCUGUAAUCAUUUUAAGGGUA [U3A A64G U108C A110G], with 0.01. GUCAGCAGUCAUAGGCCAUGGAAACUAGGAGCACCACUUCGCUGCCAGUGAAGAAAUGAACCAAGAUAAUCUGGGCCAGGCAGGCAUCAAAAGAAAUAGUCUUGCGCUCAACCAGAAGGUCUGUAAUCACUUUAAGGGUA [U3C A5G G7A U37C A62C A67U A118G U130C]: the self-cleavage is 0.42. Then GUCAACGGUCUUAGGCCAUGGAAACUAGGAGCACCAUUUCGCUGCCAGUGAGGAAAUGAACAAAGAAAAUCUGGGCCAGGCAGGCAUCAAAAGAAAUAGUCUUGCGCUCAACCAGAAAGUCUGUAAUCAUUUUAAGGGUA [U3C A11U A52G], with 1.

Consider GUAAACGGUCAUAGGCCAUGGAAACUAGGAGCACCAUAUCGCUGCCAGUGAAGAGAUGAACAAAGAAAAUCUGGGCCAGGCAGGCAUCAAAAGAAAUAGUCUUGCGCUCAACCAGAAAGUCUGUAAUCAUCUUAAGGGUA [U3A U38A A55G U131C], for which the self-cleavage was 0.76. Then GUCAACGGUCGUAGGCCAUGGAAACUAGGAGCACCAUUUCGCCGCCAGUGAAGAAAUGAACAAAGAAAAUCUGGGCCAGGCAGGCAUCAAAAGAAAUAGUCUUGCGCUCAACCAGAAAGUCUGUAAUCGUUUUAAGGGUA [U3C A11G U43C A129G], with 0.76.

As to GUAAACGGUCAUAGGCCAUGGAAACUAGGAGCACCAUUUCGCUGCCAGCGAAGAAAUGAACAAAGAAAAUCUGGGCCAGGCAGGCAUCAAAAGAAAUAGUCUUGCGCUCAACCAGGAAGUCCGUAAUCAUUUUAAGGGUA [U3A U49C A116G U122C], the self-cleavage turned out to be 0.38.

In the case of GUCAACGGUCAUCGGCCAUGGAAACUAGGAGCACCAUUUCGCUGCCAGUGAAGAAAUGGACAAAGAAAAUCUGGGCCAGGCAGGCAUCAAAAGAAAUAGUCUUGCGCUCAACCAGAAAGUCUGUAAUCAUUUUAAGGGUA [U3C A13C A59G], the self-cleavage is 0.5.

For GUCAACGGUCAUAGGCCAUGGGAACUAGGGGCACCAUUUCGCUGCCAGUGAAGAAAUGAACAAAGAAAAUCUGGGCCGGGCAGGCAUCCAAAGAAAUAGUCUUGCGCUCAGCCAGAAAGUCUGUAAUCAUUUUAAGGGUA [U3C A22G A30G A78G A89C A111G], the self-cleavage came to 0.1.

With GUAAACGGUCAUAGGCCAUGGAAACUAGGAGCACCAUUCCGCUGCCAGUGAAGAAAUGAACAAAGAAGAUCUGGGCCAGGCAGGCAUCAAAAGAAAUAGUCUUGCGCUCAACCAGAAAGUCUGUAAUCAUUUUAAGGGUA [U3A U39C A68G], the self-cleavage is 1.15.

On to GGUAACGGUCAUAGGCCACGGAAGCUAGGAGCACCAUUUCGCUGCCAGUGAAGAAAUGGACAAAGAAGAUCUGGGCCAGGCAGGCAUCAAAAGAAAUAGUCUUGCGCUCAACCAGAAAGUCUGUAACCAUUUUAAGGGUA [U2G U19C A24G A59G A68G U127C], for which the self-cleavage stood at 0.52. Consider GUAAGCGGUCAUAGGCCAUGGAAACUAGGAGCACCAUUUCGCUGCCAGUGAAGAAAUGAACUAAGAAAAUCUGGGCCAGGCAGGCAUCAAAUGAAAUAGUCUUGCGCUCAACCUGAAGGUCUGUAAUCAUUUUGAGGGUA [U3A A5G A62U A92U A114U A118G A134G], for which the self-cleavage amounted to 0.01. Then GUAAACGGUCAUAGGCCAUGGAAACUAGGAGCACCAUUUCGCUGCCAGCGGAGAAAUGAACAAAGAAAAUCUGGGCCAGGCAGGCAUCAAAAGAAAUAGUCUUGCGCUCAACCAGAAAGUCUGUAAUCAUUUUAAGGGUA [U3A U49C A51G], with 0.73; and GUAAGCGGUCAUAGGCCAUGGAAACUAGGAGCACCAUUUCGCUGCCAGUGAAGAAAUGAACAAAGAAAAUCUGGGCCAGGCAGGCUUCAAAAGAAAUAGUCUUGCGCUCAACCAGAAAGUCUGUAAUCAUUUUAAGGGUA [U3A A5G A86U], with 1.15. With GUAAACGGUCAUAGGCCAUGGAAACUAGGAACACCAUUUCGCUGCCAGUGAAGAAAUGAACAAAGAAAAUCUGGGCCAGACAGGCAUCAAAAGAAAUAGUCUUGCGCUCAACCGGAAAGUCUGUAAUCAUUUUAAGGGUA [U3A G31A G80A A114G], the self-cleavage is 0.03. The same measure for GUCAGCGGUCAUAGGCCAUGGAAACUAGGAGCACCAUCUCGCUGCCAGUGAAGAAAUGAACAAAGAAAAUCUGGGCCUGGCAGGCAUCAGAAGAAAUAGUCUUGCGCUCAACCAGAAAGUCUGUAAUCAUUUUAAGGGUA [U3C A5G U38C A78U A90G]: 0.33.
